± gives the standard deviation of the averaged measurements. Over roughly 33,000 sequences, “E-score (dimensionless, -0.5 to 0.5)” has its median near -0.046; the highest 2% begin near 0.36. The list shows a part of the results.
tested on: T1, SpTbr T-box DNA-binding domain (GST fusion); assay: PBM E-score of 8-mer (E-score (dimensionless, -0.5 to 0.5)); Tbr is Tbrain of the sea star Patiria miniata (Pm) or the sea urchin Strongylocentrotus purpuratus (Sp); higher = stronger binding preference; most listed sequences are background and not binding sites; conditions: the construct has about 5 more residues each side
T1 sequence: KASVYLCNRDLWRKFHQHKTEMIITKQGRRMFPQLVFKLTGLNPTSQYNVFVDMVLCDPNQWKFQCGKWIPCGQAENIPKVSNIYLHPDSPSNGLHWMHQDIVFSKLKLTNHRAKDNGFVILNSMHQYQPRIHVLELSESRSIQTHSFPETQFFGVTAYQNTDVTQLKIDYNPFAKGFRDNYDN
Summary of the method: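 Primer extension turned Universal Agilent oligonucleotide arrays double-stranded. They were incubated with 200 nM protein in PBS (pH 7.5); the protein was a GST-fused Tbr T-box DNA-binding domain expressed in BL21 E. coli at 20 °C and purified on glutathione. Every ungapped 8-mer was scored from the scanned, quantified probe intensities, and the Universal PBM Analysis Suite gave each an enrichment E-score averaged over duplicate arrays.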

Sequence | PBM E-score of 8-mer
CTAGCCCA | -0.00492 ± 0.087
AGTTCAGA | -0.217 ± 0.0075
CGCTCACA | 0.263 ± 0.015
AGGACCTG | -0.16 ± 0.091
ATCAGCTA | 0.0373 ± 0.043
ATAGACGA | -0.186 ± 0.076
CCATGAAG | -0.0335 ± 0.015
GCGCACTA | 0.0286 ± 0.014
GCGCGCCC | 0.158 ± 0.059
AAGTGAAA | 0.209 ± 0.069
CTACAACA | 0.151 ± 0.021
ACTATTGC | -0.0869 ± 0.025
CTTAATCA | -0.0898 ± 0.078
AACGTTGC | 0.0331 ± 0.065
AGCAGCGA | -0.0665 ± 0.023
ACGACATA | -0.0753 ± 0.025
GCAAACCC | -0.0464 ± 0.01
GTAAGGGA | 0.0134 ± 0.015
AAACGGGT | -0.102 ± 0.05
CCTATAGG | -0.111 ± 0.077
CACCGCCC | 0.12 ± 0.049
CTTGCTGA | 0.0634 ± 0.045
CGAGTGTA | 0.145 ± 0.029
CGCGAGTC | 0.262 ± 0.035
ACACGGAT | 0.147 ± 0.059

Sequence | PBM E-score of 8-mer
CTAGGACA | 0.0859 ± 0.014
ACAATACT | 0.115 ± 0.018
AAGCTTCA | -0.17 ± 0.011
TGCATAAA | -0.277 ± 0.1
GGTTGTCA | 0.338 ± 0.0013
AGGACCTC | -0.19 ± 0.028
AAGACTCT | -0.235 ± 0.0099
ACTTCGTC | 0.0823 ± 0.0061
AGTTCCGA | -0.0863 ± 0.035
GCATTTGA | -0.0218 ± 0.011
ACGGGGTA | -0.155 ± 0.037
CCGACTTC | -0.135 ± 0.06
AAAATTCC | -0.13 ± 0.086
CACGAAGC | -0.0302 ± 0.044
ACTTGCCT | -0.00622 ± 0.073
GTTTCCCA | 0.0724 ± 0.023
GATGCGAC | 0.216 ± 0.022
CGCGGCAC | 0.233 ± 0.0063
GAAACGTA | -0.0747 ± 0.011
CCGAGGAC | -0.00813 ± 0.05
GAACAGCA | -0.0104 ± 0.052
ACAGTCGT | 0.0314 ± 0.056
GTGGCGAA | 0.307 ± 0.0044
ATGACAAC | 0.222 ± 0.017
GCTCAACA | -0.116 ± 0.037

Sequence | PBM E-score of 8-mer
AAGCGACT | -0.0562 ± 0.00065
GCTCACGA | 0.0514 ± 0.018
GATTGTCC | -0.243 ± 0.0045
CCGCCGGA | -0.153 ± 0.0055
AACCAAGC | -0.0913 ± 0.019
ATGCTGTC | 0.0861 ± 0.067
ATGCGTGA | 0.374 ± 0.0053
ACAGTTAC | 0.0684 ± 0.0085
AACCACGC | 0.0508 ± 0.067
CTATGGTA | -0.179 ± 0.0064
ACAATATC | 0.00651 ± 0.023
CGGTCGGA | -0.319 ± 0.052
CGCGTACA | 0.0943 ± 0.015
AGTGCGTC | -0.0869 ± 0.076
GACCATAA | 0.196 ± 0.06
TAAAGGAA | -0.222 ± 0.016
CGTAGACC | -0.157 ± 0.018
AGCGTTCG | 0.192 ± 0.054
ATAGGGCG | 0.0377 ± 0.023
ATAAGCCA | -0.193 ± 0.018
ACAGGTGG | 0.316 ± 0.026
CGCCCACA | 0.247 ± 0.013
AAGGTAGC | 0.0871 ± 0.026
CCTGCACG | -0.0522 ± 0.03
ATGCTACA | -0.0831 ± 0.002

Sequence | PBM E-score of 8-mer
CTATTGAC | 0.0121 ± 0.067
CGTAAGAA | -0.113 ± 0.036
AGAGCTGC | -0.0124 ± 0.046
AGTATAGC | 0.0777 ± 0.026
GATAATCC | -0.04 ± 0.076
AAGTCCCT | 0.0335 ± 0.044
TCCCCTCA | -0.0995 ± 0.007
GGAGAAGA | -0.251 ± 0.07
CTTTGCTA | 0.0404 ± 0.057
GCGTTTAC | 0.0503 ± 0.062
CGCCGTAA | -0.0199 ± 0.046
AAACTCGA | 0.0998 ± 0.05
CTGCTCGA | -0.213 ± 0.027
ACCATATG | 0.1 ± 0.054
TAGCCCCA | -0.0427 ± 0.0069
CAGAAGAC | -0.192 ± 0.033
CGCGTGCC | 0.103 ± 0.14
AGGTCCAG | -0.179 ± 0.042
CCCCCTCC | -0.0942 ± 0.036
GTGAGGCA | 0.137 ± 0.011
CTAAGGAA | -0.158 ± 0.034
ACACATGG | 0.313 ± 0.015
ATGTGCCC | -0.0447 ± 0.038
CCTGAGTC | -0.0308 ± 0.053
GAGAACGC | 0.275 ± 0.0087

Sequence | PBM E-score of 8-mer
GCTTAAAC | 0.0837 ± 0.029
CCGCATAG | -0.113 ± 0.031
CTCGCCAA | 0.175 ± 0.0053
ACCATGTA | 0.0437 ± 0.0072
ATTTGGTG | 0.119 ± 0.043
ATCACCGG | -0.358 ± 0.036
ATTCCGTA | -0.194 ± 0.024
CATTACTC | -0.17 ± 0.064
AGGAGCAG | -0.25 ± 0.074
GTAATGAA | -0.0709 ± 0.044
AAACCATT | -0.08 ± 0.05
ACGCACCC | 0.215 ± 0.032
CTCTGTAC | -0.0439 ± 0.087
ATCAGAAT | -0.0403 ± 0.028
CTACGTTC | -0.128 ± 0.027
GAACGCTC | 0.0472 ± 0.045
AGCCCGCC | -0.164 ± 0.18
AGCAATCA | -0.118 ± 0.0093
ATATGACC | -0.073 ± 0.1
CTTCATGA | -0.182 ± 0.062
CAGCATGG | 0.0191 ± 0.067
GAAATACC | -0.079 ± 0.06
GAAGCCCC | -0.339 ± 0.045
AGGCAGGG | -0.197 ± 0.047
AGGAGAGG | -0.247 ± 0.019

Sequence | PBM E-score of 8-mer
CAGCGAGC | 0.172 ± 0.012
ATAGGAAT | -0.319 ± 0.026
GCCCCGCC | -0.086 ± 0.041
CCTTCATA | 0.104 ± 0.017
ACTAACGA | 0.098 ± 0.0011
CGTCGTGA | -0.0205 ± 0.0093
AGGGGACT | -0.143 ± 0.083
GTGCGCAA | 0.137 ± 0.026
ACCTTTGG | 0.0445 ± 0.018
GAGTTAGC | 0.0856 ± 0.074
TCCCTCGA | -0.0267 ± 0.0017
CGAACGCG | 0.237 ± 0.0053
GCAACTAA | 0.0109 ± 0.0072
CGTTTCGC | 0.178 ± 0.0072
CAAGAAGC | -0.13 ± 0.013
AGGCCTCA | 0.0481 ± 0.029
AGTAAACA | 0.101 ± 0.057
GTCGTCTA | -0.147 ± 0.04
CCCCGGAC | -0.236 ± 0.042
CACCCGGA | 0.2288 ± 0.001
CTTACAGC | -0.08 ± 0.06
CCACTCAG | -0.0534 ± 0.087
CAACGGAG | -0.0759 ± 0.029
CTTACTAC | -0.165 ± 0.02
ATCGCCCC | -0.0732 ± 0.032

Sequence | PBM E-score of 8-mer
GGAGGGAC | -0.149 ± 0.036
CAGGACTG | -0.136 ± 0.017
ATTTTTGG | -0.132 ± 0.042
ACTAGTGC | 0.0994 ± 0.059
ACACTAAC | 0.303 ± 0.03
CACACCCA | 0.421 ± 0.02
CGATAGAC | -0.0752 ± 0.021
GTCTCCAA | -0.266 ± 0.079
CCGACGTA | -0.0853 ± 0.019
GTACTAAA | -0.298 ± 0.036
CCTCCTAC | 0.0318 ± 0.011
AATATGGC | -0.028 ± 0.044
AGTGCACA | 0.144 ± 0.0026
CAAAATGC | -0.159 ± 0.029
AGCCTGTC | -0.0516 ± 0.049
AGGGTTAT | 0.0382 ± 0.041
CCATGAGA | -0.149 ± 0.0034
GCTATGTA | -0.131 ± 0.068
GTGGGATA | 0.252 ± 0.0076
ATCAGTGG | -0.149 ± 0.015
ACATTGGG | -0.0454 ± 0.065
ATTCTACA | -0.0365 ± 0.019

Source: the supplement of paper PMC4166925
